For experiment [1], the target named is CYLD USP domain I790D (human) (UniProt Q9NQC7). The experiment in a line: SEC-MALS; Superdex 75 size-exclusion column; CYLD and SPATA2 PUB variants alone and mixed; both purified. (In general: Size exclusion chromatography separates by hydrodynamic size, large species first.)
In experiment [2] the target is T1, CYLD (endogenous) (human (endogenous in U2OS/NOD2 and HCT116)) (UniProt Q9NQC7).
T1 sequence: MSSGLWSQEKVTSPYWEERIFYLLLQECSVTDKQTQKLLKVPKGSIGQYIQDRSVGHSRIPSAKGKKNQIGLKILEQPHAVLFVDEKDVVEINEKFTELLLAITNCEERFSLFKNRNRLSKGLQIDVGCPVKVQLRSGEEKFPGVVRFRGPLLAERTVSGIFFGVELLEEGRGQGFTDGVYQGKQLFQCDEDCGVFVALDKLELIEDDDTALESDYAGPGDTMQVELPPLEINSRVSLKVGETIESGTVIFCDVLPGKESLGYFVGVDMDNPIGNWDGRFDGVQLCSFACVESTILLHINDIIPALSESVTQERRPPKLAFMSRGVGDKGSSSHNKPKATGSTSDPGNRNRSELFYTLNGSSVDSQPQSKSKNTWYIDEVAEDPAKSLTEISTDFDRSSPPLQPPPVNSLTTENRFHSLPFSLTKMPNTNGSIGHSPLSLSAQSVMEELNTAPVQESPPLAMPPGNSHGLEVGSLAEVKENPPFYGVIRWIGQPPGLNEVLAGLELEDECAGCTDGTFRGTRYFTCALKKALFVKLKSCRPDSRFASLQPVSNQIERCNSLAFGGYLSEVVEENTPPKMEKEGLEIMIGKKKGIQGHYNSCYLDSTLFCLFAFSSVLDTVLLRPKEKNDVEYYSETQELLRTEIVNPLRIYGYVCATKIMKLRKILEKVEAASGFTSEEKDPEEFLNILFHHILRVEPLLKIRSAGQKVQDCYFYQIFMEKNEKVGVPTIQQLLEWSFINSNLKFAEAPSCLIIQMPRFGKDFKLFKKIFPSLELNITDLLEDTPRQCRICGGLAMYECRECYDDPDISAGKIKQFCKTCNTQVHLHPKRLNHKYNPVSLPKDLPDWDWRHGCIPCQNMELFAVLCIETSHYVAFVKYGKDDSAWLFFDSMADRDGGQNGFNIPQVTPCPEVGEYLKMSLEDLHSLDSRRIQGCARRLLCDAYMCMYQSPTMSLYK
Description: co-IP; immunoprecipitation of endogenous CYLD from U2OS/NOD2 cells, western blot for SPATA2; control IgG as negative control. A general note: A western blot detects proteins with antibodies after separation by electrophoresis.

The target in experiment [3] is T2, FLAG-CYLD wild type (human) (UniProt Q9NQC7).
T2 sequence: T1 sequence
The experiment in a line: co-IP; immunoprecipitation of transiently expressed FLAG-CYLD variants from WT, CYLD KO or SPATA2 KO U2OS/NOD2 cells, western blot.

Experiment [4] has as its target T3, SPATA2 PUB domain (aa 1–241) (UniProt Q9UM82).
T3 sequence: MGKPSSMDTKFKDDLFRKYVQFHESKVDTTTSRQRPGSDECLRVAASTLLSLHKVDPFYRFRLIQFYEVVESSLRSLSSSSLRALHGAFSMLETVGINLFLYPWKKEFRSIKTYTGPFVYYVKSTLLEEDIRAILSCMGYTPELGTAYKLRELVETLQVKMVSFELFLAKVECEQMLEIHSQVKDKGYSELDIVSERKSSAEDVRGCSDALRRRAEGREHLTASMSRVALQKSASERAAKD
The experiment in a line: SEC-MALS; Superdex 75 size-exclusion column; CYLD and SPATA2 PUB variants alone and mixed; both purified.

For experiment [5], the target named is T3, SPATA2 PUB domain (aa 1–241). Description: NMR titration; 15N-labeled B-box domain (aa 778–855) titrated with unlabeled SPATA2 PUB domain; both purified.
Experiment [6] has the same target. The experiment in a line: SPR; fraction of CYLD variant bound to SPATA2 PUB against varying CYLD concentrations; kinetic and equilibrium fits; both purified.

Results are given in words; binding and its absence hold for the method and conditions named. For part of these data: In cells and extracts the contact can be indirect. Some results given as binding are weak or reduced against the parent protein; the word gives no strength. For part of these data: Sequences can lack the tags named with a protein.

B1: CYLD USP domain I790D (domain or fragment, UniProt Q9NQC7 583-956)
chain: GLEIMIGKKKGIQGHYNSCYLDSTLFCLFAFSSVLDTVLLRPKEKNDVEYYSETQELLRTEIVNPLRIYGYVCATKIMKLRKILEKVEAASGFTSEEKDPEEFLNILFHHILRVEPLLKIRSAGQKVQDCYFYQIFMEKNEKVGVPTIQQLLEWSFINSNLKFAEAPSCLIIQMPRFGKDFKLFKKIFPSLELNITDLLEDTPRQCRDCGGLAMYECRECYDDPDISAGKIKQFCKTCNTQVHLHPKRLNHKYNPVSLPKDLPDWDWRHGCIPCQNMELFAVLCIETSHYVAFVKYGKDDSAWLFFDSMADRDGGQNGFNIPQVTPCPEVGEYLKMSLEDLHSLDSRRIQGCARRLLCDAYMCMYQSPTMSLYK
As to B1, in experiment [1], the binding entry is reported as “no binding”.

B2: SPATA2 (endogenous) (protein, UniProt Q9UM82 1-520)
chain: MGKPSSMDTKFKDDLFRKYVQFHESKVDTTTSRQRPGSDECLRVAASTLLSLHKVDPFYRFRLIQFYEVVESSLRSLSSSSLRALHGAFSMLETVGINLFLYPWKKEFRSIKTYTGPFVYYVKSTLLEEDIRAILSCMGYTPELGTAYKLRELVETLQVKMVSFELFLAKVECEQMLEIHSQVKDKGYSELDIVSERKSSAEDVRGCSDALRRRAEGREHLTASMSRVALQKSASERAAKDYYKPRVTKPSRSVDAYDSYWESRKPPLKASLSLRKEPVATDVGDDLKDEIIRPSPSLLTMASSPHGSPDVLPPASPSNGPALLRGTYFSTQDDVDLYTDSEPRATYRRQDALRPDVWLLRNDAHSLYHKRSPPAKESALSKCQSCGLSCSSSLCQRCDSLLTCPPASKPSAFPSKASTHDSLAHGASLREKYPGQTQGLDRLPHLHSKSKPSTTPTSRCGFCNRPGATNTCTQCSKVSCDACLSAYHYDPCYKKSELHKFMPNNQLNYKSTQLSHLVYR
B2: the binding result in experiment [2] and in experiment [3] was “binds” in each case.

B3: SPATA2 PUB domain (aa 1–241) (domain or fragment, UniProt Q9UM82 1-241)
chain: T3 sequence
Consider B3, for which the binding entry in experiment [4] was “no binding”.

B4: CYLD B-box domain (aa 778–855) (domain or fragment, UniProt Q9NQC7 778-855)
chain: TDLLEDTPRQCRICGGLAMYECRECYDDPDISAGKIKQFCKTCNTQVHLHPKRLNHKYNPVSLPKDLPDWDWRHGCIP
modifications: 15N-labelled in the NMR titration
Consider B4, for which the binding entry in experiment [5] and in experiment [6] was “no binding” throughout.
